Structures can show the parent of a compound that is named as a salt. The full ranking holds about 2,800 compounds; the median of “cell viability relative to vehicle” is about 0.98, and the lowest 2% start at about 0.45. The list shows a part of the results.
System: NCI-H2228 alectinib-DTP
Test: cell viability relative to vehicle (fraction of vehicle); NCI-H2228 is an ALK-positive lung cancer line and DTP means drug-tolerant persister; higher = less growth inhibition
Details: 100 nM; treatment time 6 days
Summary of the method: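 Parental NCI-H2228 cells and drug-tolerant persister cells (made with 1000 nM of a targeted drug for 13 days) were seeded in 384-well plates. The next day, the 3114-agent TargetMol anti-cancer compound library was added at 100 nM, with DMSO as vehicle. After 6 days, ATP was read with the CellTiter-Glo 3D Cell Viability Assay. Each value is cell viability relative to vehicle-treated cells.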

Structure (SMILES)	cell viability
Nc1ccc(/C=C/C(=O)NCc2cc3cc(-c4ccc(C(=O)N5CCC(F)(F)CC5)cc4)cc(-c4ccc(F)cc4)c3o2)cn1	1.25
N=C(N)Nc1ccc(C(=O)Oc2ccc3cc(C(=N)N)ccc3c2)cc1 [Nafamostat mesylate]	0.929
CC(C)n1nc(-c2ccc3oc(N)nc3c2)c2c(N)ncnc21	0.37
CN1C[C@@H]2C[C@H]1CN2c1cc2c(cc1F)c(=O)c(C(=O)O)cn2C1CC1 [Danofloxacin mesylate]	0.947
N[C@@H](Cc1c[nH]c2ccc(O)cc12)C(=O)O [L-5-Hydroxytryptophan]	1.05
CC#CC(=O)N1CCC[C@H]1c1nc(-c2ccc(C(=O)Nc3ccccn3)cc2)c2c(N)nccn12 [Acalabrutinib]	1.05
CC(=O)Nc1nc2c(Oc3cc(-c4ccc(C(F)(F)F)cc4)ncn3)cccc2s1	1.12
N#CSc1cc(SC#N)c(N)nc1N	0.783
CC(=O)O[C@]1(C(C)=O)CC[C@H]2[C@@H]3CCC4=CC(=O)CCC4=C3[C@@H](c3ccc(N(C)C)cc3)C[C@@]21C [Ulipristal acetate]	0.997
CCCCc1nc2cc(/C=C/C(=O)NO)ccc2n1CCN(CC)CC [Pracinostat]	0.977
O=C(O)/C=C/c1ccc(O)c(O)c1 [Caffeic Acid]	0.958
CC1(C)CC(=O)c2c(C(F)(F)F)nn(-c3ccc(C(N)=O)c(N[C@H]4CC[C@H](O)CC4)c3)c2C1	0.491
COc1c2c(cc3c1-c1c(cc4c(c1OC)OCO4)C[C@H](C)[C@H](C)C3)OCO2 [Schisandrin C]	1.11
COc1cc2nc(N(C)CCCNC(=O)C3CCCO3)nc(N)c2cc1OC (stereo not given) [Alfuzosin hydrochloride]	1.18
Clc1ccc(Cn2c(CN3CCCC3)nc3ccccc32)cc1 [Clemizole]	0.828
Clc1ccc(CO/N=C(\Cn2ccnc2)c2ccc(Cl)cc2Cl)c(Cl)c1 [Oxiconazole nitrate]	1.04
COc1ccc(-c2ccc3ncc4c(c3c2)n(-c2ccc(N3CCNCC3)c(C(F)(F)F)c2)c(=O)n4C)cn1	0.373
O=C(Nc1ccc(C(O)(C(F)(F)F)C(F)(F)F)cc1)c1ccc(C(F)(F)F)cc1	0.963
CC(=O)O[C@]1(C(C)=O)CC[C@H]2[C@@H]3C=C(Cl)C4=CC(=O)[C@@H]5C[C@@H]5[C@]4(C)[C@H]3CC[C@@]21C [Cyproterone acetate]	0.913
CC(C)c1cc(-c2n[nH]c(=O)n2-c2ccc3c(ccn3C)c2)c(O)cc1O [Ganetespib]	0.508
N[C@H]1C[C@@H]1c1ccc(-c2cccc(O)c2)cc1	1.01
CCCCNc1ncc2c(-c3ccc(CN4CCN(C)CC4)cc3)cn(C3CCC(O)CC3)c2n1 (stereo not given)	0.738
O=C(O)COCCN1CCN(C(c2ccccc2)c2ccc(Cl)cc2)CC1 (stereo not given) [Cetirizine dihydrochloride]	1.19
C=C1C[C@@]2(O)O[C@@]3(C[C@H]2C(C)C)[C@@H](C)CC[C@@H]13 [Curcumol]	0.962
C=CC(=O)Nc1cccc(Nc2nc(Nc3ccc(Oc4ccnc(C(=O)NC)c4)cc3)ncc2F)c1	0.962

Structure (SMILES)	cell viability
CCCSc1nc(N[C@@H]2C[C@H]2c2ccc(F)c(F)c2)c2nnn([C@@H]3C[C@H](OCCO)[C@@H](O)[C@H]3O)c2n1 [Ticagrelor]	1.19
N#Cc1ccc(-c2c(-c3ncn[nH]3)sc(N3CCOCC3)c2C#N)c(F)c1	0.788
c1ccc(C2CN3CCSC3=N2)cc1 (stereo not given) [Tetramisole hydrochloride]	1.05
COC(=O)c1cc(O)c(O)c(O)c1 [Methyl gallate]	1.07
COc1cc2c(cc1OC)[C@@H](Cc1ccc(Oc3cc(C[C@@H]4c5cc(OC)c(OC)cc5CCN4C)ccc3O)cc1)N(C)CC2 [Dauricine]	1.05
Cn1c(=O)c2nc[nH]c2n(C)c1=O [Theophylline]	1.13
CC(=O)O[C@H](CC=C(C)C)C1=CC(=O)c2c(O)ccc(O)c2C1=O [Acetyl shikonin]	1.05
CC(C)(C)c1[nH]cnc1/C=c1\[nH]c(=O)/c(=C/c2ccccc2)[nH]c1=O [Plinabulin]	0.597
COc1cc2c(Oc3ccc4[nH]c(C)cc4c3F)ccnc2cc1OCC1(N)CC1 [Anlotinib Dihydrochloride]	0.893
COc1cc2c(Oc3ccc4[nH]c(C)cc4c3F)ccnc2cc1OCC1(N)CC1 [Anlotinib]	0.936
COc1cc(CCC(=O)CC(=O)CCc2ccc(O)c(OC)c2)ccc1O [Tetrahydro Curcumin]	0.985
CCC(N)(C(=O)O)c1ccc(C(=O)O)cc1 (stereo not given)	0.886
CC(=O)c1ccc(S(=O)(=O)NC(=O)NC2CCCCC2)cc1 [Acetohexamide]	0.876
Cc1c(-c2ccnn2C)cc(C(=O)NCc2ccc(S(C)(=O)=O)cn2)c(=O)n1-c1cccc(C(F)(F)F)c1 [Alvelestat]	1
O=C(Nc1ccc(OC(F)(F)F)cc1)c1sccc1NCc1ccnc2ccccc12	1.02
CCCCCCCCCCCCCCCCCCOP(=O)([O-])OC1CC[N+](C)(C)CC1 [Perifosine]	0.914
CC(=O)Nc1cccc2c1c(Sc1ccc(Cl)cc1)c(C)n2CC(=O)O	1.1
COc1ccc(CN(CCN(C)C)c2ccccn2)cc1 [Pyrilamine maleate]	1.05
CC(COc1ccccc1)N(CCCl)Cc1ccccc1 (stereo not given) [Phenoxybenzamine hydrochloride]	1.02
Nc1ncn([C@@H]2O[C@H](CO)[C@@H](O)[C@H]2O)c(=O)n1 [5-Azacytidine]	1.05
CC(C)C[C@H](NC(=O)[C@@H](COC(C)(C)C)NC(=O)[C@H](Cc1ccc(O)cc1)NC(=O)[C@H](CO)NC(=O)[C@H](Cc1c[nH]c2ccccc12)NC(=O)[C@H](Cc1cnc[nH]1)NC(=O)[C@@H]1CCC(=O)N1)C(=O)N[C@@H](CCCNC(=N)N)C(=O)N1CCC[C@H]1C(=O)NNC(N)=O [Goserelin acetate]	1.04
COc1cccc(-c2ccc(NC(=O)C3=C(C(=O)O)CCC3)c(F)c2)c1 [Vidofludimus]	1.08
Cc1cc(=O)oc2cc(O)ccc12 [4-Methylumbelliferone]	0.993
C/C=C1/[C@H](O[C@@H]2O[C@H](CO)[C@@H](O)[C@H](O)[C@H]2O)OC=C(C(=O)OC)[C@H]1CC(=O)OCCc1ccc(O)c(O)c1 [Oleuropein]	0.897
CC(C)(C)Cn1c(N)nc2ccc(-c3[nH]c(C(C)(C)C)nc3-c3ccc(F)cc3)nc21 [Ralimetinib Mesylate]	0.887

Structure (SMILES)	cell viability
COc1ccc(C(=O)CC2(O)C(=O)Nc3c(Cl)ccc(Cl)c32)cc1 (stereo not given)	0.934
C[C@@H]1CN(C(=O)c2ccc(NC(=O)c3cc(O[C@H](C)c4c(Cl)ccc(F)c4Cl)c(N)nn3)cc2)C[C@H](C)N1 [Ensartinib]	1
Cc1cc(C#N)c(N)s1 [2-Amino-5-methyl-3-thiophenecarbonitrile]	0.878
O=c1[nH]cnc2c1ncn2[C@H]1C[C@H](O)[C@@H](CO)O1 [2'-Deoxyinosine]	0.898
CCOC(=O)c1ccc(OC(=O)CCCCCNC(=N)N)cc1 [Gabexate mesylate]	1.04
CN(Cc1ccccc1)c1ccc2cc(C(=O)O)c(=O)oc2c1	0.789
CCOC(=O)[C@H](CCc1ccccc1)N[C@H]1CCc2ccccc2N(CC(=O)O)C1=O [Benazepril hydrochloride]	1.08
Cn1cc(-c2ccc(F)c(C(F)(F)F)c2)nc1C1CCN(c2ncnc3[nH]ncc23)CC1	0.96
O=C(Nc1c[nH]nc1-c1nc2ccc(CN3CCOCC3)cc2[nH]1)NC1CC1	0.562
CC1(C)Cc2c(sc(NC(=O)c3ccn[nH]3)c2C(N)=O)C(C)(C)O1	0.899
C[C@@H]1O[C@@H](Oc2c(-c3cc(O)c(O)c(O)c3)oc3cc(O)cc(O)c3c2=O)[C@H](O)[C@H](O)[C@H]1O [Myricetrin]	1.08
CC(C)[C@H]1C(=O)N[C@@H](CCCNC(=N)N)C(=O)NCC(=O)N[C@@H](CC(=O)O)C(=O)N[C@H](Cc2ccccc2)C(=O)N1C [Cilengitide]	0.82
O=C(c1cccc(Cl)c1F)N1CCN(Cc2cccc(Nc3nccs3)n2)CC1	0.772
COc1cc(OC)c2c(=O)[nH]c(-c3cc(C)c(OCCO)c(C)c3)nc2c1 [Apabetalone]	0.986
COc1cccc(NC(=O)/C=C/c2ccc(Cl)cc2)c1	0.957
CO/N=C(\C(=O)N[C@@H]1C(=O)N2C(C(=O)O)=C(CSc3nc(=O)c(O)nn3C)CS[C@H]12)c1csc(N)n1 [Ceftriaxone sodium]	1.12
COc1ccccc1C(=O)Nc1cc2c(cc1N1CCCCC1)n(C)c(=O)n2C	0.977
O=C(Nc1cccc2c(=O)cc(-c3nnn[nH]3)oc12)c1ccc(OCCCCc2ccccc2)cc1 [Pranlukast]	1.03
CNC(=O)c1ccc(Nc2nc(OC3CCCC3)c3c(-c4ccc5nc(C)oc5c4)c[nH]c3n2)c(OC)c1	1.09
Cc1ccc(C(=O)Nc2ccc(CN3CCN(C)CC3)c(C(F)(F)F)c2)cc1C#Cc1cnc2cccnn12 [Ponatinib]	0.834
CC(C)(C)NC[C@H](O)COc1nsnc1N1CCOCC1 [Timolol Maleate]	0.997
O=C1Nc2ccc(CN3C(=O)CSC3=O)cc2/C1=C/c1cc(CN2CCOCC2)c[nH]1	0.954
NCCCC[C@H](N[C@@H](CCc1ccccc1)C(=O)O)C(=O)N1CCC[C@H]1C(=O)O [Lisinopril dihydrate]	1.14
CCCCCCCCCCCCCCOc1ccc(C(=O)O)o1	1.1
Cc1ccc(Nc2nnc(Cc3ccncc3)c3ccccc23)cc1Br	0.907

Reference: the supplement of paper PMC10600219
